{"source": "paper PMC4336329", "about": "(PLoS ONE, 2015)", "note": "The campaign covered roughly 310,000 compounds. About 14,000 (4.5%) showed an effect of 50% or more. The effect is printed as a negative number. This is one part of the list."}
{"biological_target": "human ether-à-go-go-related gene (hERG) potassium channel (human, UniProt Q12809)", "sequence (Q12809 whole entry, looked up)": "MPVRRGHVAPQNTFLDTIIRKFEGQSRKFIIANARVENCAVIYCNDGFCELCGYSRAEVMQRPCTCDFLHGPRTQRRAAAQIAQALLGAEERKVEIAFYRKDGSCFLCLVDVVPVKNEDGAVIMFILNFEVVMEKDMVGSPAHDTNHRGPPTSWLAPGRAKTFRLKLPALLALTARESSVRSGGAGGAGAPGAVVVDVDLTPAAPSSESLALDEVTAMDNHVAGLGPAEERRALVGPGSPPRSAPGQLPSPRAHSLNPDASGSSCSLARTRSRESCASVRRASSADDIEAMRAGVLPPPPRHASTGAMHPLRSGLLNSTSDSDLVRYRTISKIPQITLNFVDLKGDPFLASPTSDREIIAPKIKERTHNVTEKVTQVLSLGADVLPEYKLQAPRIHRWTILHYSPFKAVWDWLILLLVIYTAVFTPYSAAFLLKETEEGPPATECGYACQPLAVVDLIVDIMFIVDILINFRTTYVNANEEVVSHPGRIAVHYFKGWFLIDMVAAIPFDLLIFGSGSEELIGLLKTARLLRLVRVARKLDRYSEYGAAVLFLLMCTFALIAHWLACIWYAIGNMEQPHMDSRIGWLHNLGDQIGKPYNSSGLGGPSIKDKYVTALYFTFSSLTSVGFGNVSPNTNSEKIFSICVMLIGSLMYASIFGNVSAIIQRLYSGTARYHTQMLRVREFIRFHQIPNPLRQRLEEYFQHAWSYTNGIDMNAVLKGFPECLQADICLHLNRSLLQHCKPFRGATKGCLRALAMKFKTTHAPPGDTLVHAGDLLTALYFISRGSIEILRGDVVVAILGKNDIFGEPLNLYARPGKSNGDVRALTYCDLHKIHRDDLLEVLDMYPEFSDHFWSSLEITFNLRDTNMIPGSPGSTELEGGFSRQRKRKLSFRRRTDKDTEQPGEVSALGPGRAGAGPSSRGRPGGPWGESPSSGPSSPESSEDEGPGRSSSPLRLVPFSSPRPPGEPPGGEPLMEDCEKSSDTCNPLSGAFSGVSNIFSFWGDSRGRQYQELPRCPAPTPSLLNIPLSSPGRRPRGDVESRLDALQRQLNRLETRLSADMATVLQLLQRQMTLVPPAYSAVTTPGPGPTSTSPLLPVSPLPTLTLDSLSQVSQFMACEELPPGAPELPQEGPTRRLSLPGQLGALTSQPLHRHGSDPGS", "assay": "primary screen, population patch clamp on CHO cells stably expressing hERG", "units": {"hERG current change (%, negative = inhibition) at 10uM": "%"}}
{"molecule": "CC(OC(=O)/C=C/c1ccco1)C(=O)Nc1cccc([N+](=O)[O-])c1", "note": "(stereo not shown);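 also: peak tail current of the secondary pulse compared with the same well before compound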", "hERG current change (%, negative = inhibition) at 10uM": 6.57}
{"molecule": "O=C(NCCCO)c1cc([N+](=O)[O-])cc2c1C=Cc1ccccc1O2", "hERG current change (%, negative = inhibition) at 10uM": -33.4}
{"molecule": "CCN(CC(=O)Nc1cccc(F)c1)CC(=O)Nc1ccccc1OC", "hERG current change (%, negative = inhibition) at 10uM": -10}
{"molecule": "CCOC(=O)N1CCC(NC(=O)c2cc(S(=O)(=O)N3CCCC3)cn2C)CC1", "hERG current change (%, negative = inhibition) at 10uM": 1.74}
{"molecule": "CCN(CC(=O)Nc1c(F)cccc1F)C(=O)c1ccc(NC(=O)CC2SC(N3CCCC3)=NC2=O)cc1", "note": "(stereo not shown)", "hERG current change (%, negative = inhibition) at 10uM": 3.17}
{"molecule": "CCS(=O)(=O)NCCc1csc(-c2ccccc2)n1", "hERG current change (%, negative = inhibition) at 10uM": 9.98}
{"molecule": "CCn1ccnc1CN(C)Cc1cn(-c2cc(C)ccc2C)nc1-c1ccccc1", "hERG current change (%, negative = inhibition) at 10uM": -51.7}
{"molecule": "O=S(=O)(c1ccc(OCC(O)CN2CCN(c3ccc(F)cc3)CC2)cc1)N1CCOCC1", "note": "(stereo not shown)", "hERG current change (%, negative = inhibition) at 10uM": -18.2}
{"molecule": "Cc1cc(NC(=O)c2ccc(Cl)cc2)c(C)cc1O", "hERG current change (%, negative = inhibition) at 10uM": 1.37}
{"molecule": "O=[N+]([O-])c1nn(-c2ccc3c(c2)OCCO3)n(O)c1=NCCC1=CCCCC1", "hERG current change (%, negative = inhibition) at 10uM": -0.0142}
{"molecule": "CC(C)(C)N1CCC1C(N)=O", "note": "(stereo not shown)", "hERG current change (%, negative = inhibition) at 10uM": 1.86}
{"molecule": "COc1ccc(C(=O)COC(=O)C2CC3CCCC(C2)C3=O)cc1Br", "note": "(stereo not shown)", "hERG current change (%, negative = inhibition) at 10uM": 3.38}
{"molecule": "CCCNC(=S)N1CCN(Cc2ccc3c(c2)OCO3)CC1.O=C(O)C(=O)O", "hERG current change (%, negative = inhibition) at 10uM": 8.24}
{"molecule": "CC1CCN(S(=O)(=O)c2ccc(NC(=O)c3cccs3)cc2)CC1", "hERG current change (%, negative = inhibition) at 10uM": -5.54}
{"molecule": "O=C(O)c1cccc(Nc2ncnc3ccccc23)c1", "hERG current change (%, negative = inhibition) at 10uM": 17.3}
{"molecule": "COC(=O)c1ccc(Nc2cc(C)nc3ccccc23)cc1.Cl", "hERG current change (%, negative = inhibition) at 10uM": -37.3}
{"molecule": "O=C(CN1C(=O)COc2ccc(Cl)cc21)N1CCc2ccccc21", "hERG current change (%, negative = inhibition) at 10uM": -1.33}
{"molecule": "Nc1nc(-c2ccco2)nn1C(=O)CCc1ccccc1", "hERG current change (%, negative = inhibition) at 10uM": -0.902}
{"molecule": "O=C(CNC(=S)N(Cc1ccccc1)Cc1cccnc1)N1CCOCC1", "hERG current change (%, negative = inhibition) at 10uM": 54.9}
{"molecule": "CCOc1ccc(NC(=O)Cc2c(C(=O)O)n(C)c3ccccc23)cc1", "hERG current change (%, negative = inhibition) at 10uM": 20.5}
{"molecule": "CCCn1nnc(NC(=O)C(c2ccccc2)c2ccccc2)n1", "hERG current change (%, negative = inhibition) at 10uM": 4.18}
{"molecule": "O=C(NCc1cccs1)c1nc2ncccn2n1", "hERG current change (%, negative = inhibition) at 10uM": 4.4}
{"molecule": "O=C1CC(C(=O)N2CCN(S(=O)(=O)c3cccc(F)c3)CC2)CN1Cc1ccccc1Cl", "note": "(stereo not shown)", "hERG current change (%, negative = inhibition) at 10uM": -9.24}
{"molecule": "COc1ccc(NC(=O)CC2C(=O)N(C)C(=S)N2Cc2ccc3c(c2)OCO3)cc1", "note": "(stereo not shown)", "hERG current change (%, negative = inhibition) at 10uM": -29.1}
{"molecule": "N#CC1CCN(C(=O)c2ccc3c(Cl)c4c(nc3c2)CCCC4)CC1", "hERG current change (%, negative = inhibition) at 10uM": -12.6}
{"molecule": "N#CCCN(C1CCCCC1)S(=O)(=O)CCOc1ccccc1", "hERG current change (%, negative = inhibition) at 10uM": -6.01}
{"molecule": "COc1ccc(NC(=O)c2cccc(S(=O)(=O)N3CCOCC3)c2)cc1", "hERG current change (%, negative = inhibition) at 10uM": -15.9}
{"molecule": "CCOC(=O)N1CCN(C(=O)C2CCCN(c3ncnc4c3nc3n4CCCCC3)C2)CC1", "note": "(stereo not shown)", "hERG current change (%, negative = inhibition) at 10uM": -22.9}
{"molecule": "CCOC(=O)N1CCN(C(=O)c2ccc3c(c2)N(C)C(=O)/C(=C\\c2ccc(OCC)c(OC)c2)S3)CC1", "hERG current change (%, negative = inhibition) at 10uM": -32.5}
{"molecule": "COc1ccc2cc(CN(Cc3ccco3)C(=S)NCC3CCCO3)c(=O)[nH]c2c1", "note": "(stereo not shown)", "hERG current change (%, negative = inhibition) at 10uM": 12.5}
{"molecule": "COc1ccc(/C(C)=N/N=C2/NC(=O)CC(C(=O)O)S2)cc1", "note": "(stereo not shown)", "hERG current change (%, negative = inhibition) at 10uM": -4.66}
{"molecule": "CCOC(=O)c1ccc(N2CN(CCc3ccccc3)CNC2=S)cc1", "hERG current change (%, negative = inhibition) at 10uM": 6.21}
{"molecule": "Cc1c2cnn(CC(=O)N3CCN(c4ncccn4)CC3)c(=O)c2c(C)n1Cc1ccc(F)cc1", "hERG current change (%, negative = inhibition) at 10uM": 15.4}
{"molecule": "COc1ccc(S(=O)(=O)c2c(O)c3ccc(C(=O)Nc4ccc(F)cc4)cc3[nH]c2=O)cc1", "hERG current change (%, negative = inhibition) at 10uM": 1.4}
{"molecule": "COc1ccc(C)cc1Nc1n[n+](-c2ccccc2)c(-c2ccc(N(C)C)cc2)s1.[Cl-]", "hERG current change (%, negative = inhibition) at 10uM": -49.3}
{"molecule": "CCN(CC)S(=O)(=O)c1ccc(Cl)c(C(=O)N2CCc3ccccc32)c1", "hERG current change (%, negative = inhibition) at 10uM": -44.8}
{"molecule": "CCN(CCCNC(=O)Cn1ncc2c([nH]c3ccc(C)cc32)c1=O)c1cccc(C)c1", "hERG current change (%, negative = inhibition) at 10uM": 21.3}
{"molecule": "COc1ccc(NC(=O)CSc2nc(O)c(Cc3ccccc3)c(=O)[nH]2)cc1", "hERG current change (%, negative = inhibition) at 10uM": 7.34}
{"molecule": "O=C(NC1=NCCS1)c1ccc(-c2ccc(Cl)cc2)o1", "hERG current change (%, negative = inhibition) at 10uM": -18.6}
{"molecule": "O=C(C1=C[C@H](C2CC2)C[C@H](OCc2ccc(CO)cc2)O1)N1CCN(Cc2ccccc2)CC1", "hERG current change (%, negative = inhibition) at 10uM": -62.7}
{"molecule": "COc1ccc(N/C(=C2\\CCCC2=O)C2CCCCC2)cc1", "hERG current change (%, negative = inhibition) at 10uM": -19.7}
{"molecule": "CC(OC(=O)CNC(=O)C12CC3CC(CC(C3)C1)C2)C(=O)Nc1ccc(N2CCOCC2)cc1", "note": "(stereo not shown)", "hERG current change (%, negative = inhibition) at 10uM": 2.32}
{"molecule": "O=C(CCC1N=C2c3ccccc3N=C(SCc3ccccc3Cl)N2C1=O)NCc1ccco1", "note": "(stereo not shown)", "hERG current change (%, negative = inhibition) at 10uM": -32.4}
